Sequences with one replicate were seen in a single cluster, so their values are uncertain.
Test system: ATP
Assay: switch fluorescence ratio, 500 uM ATP over buffer (Cy3 cluster intensity, sum of 5 cycles each) (fold (ratio)); higher = stronger signal-on switching upon ATP binding; sequences stand for … in TCGTCGGCAGCGTCAGATGTGTATAAGAGACAGTTTTTTTTTTTTTTTTTTTTTTTTT…TC
Conditions: aptamer strand: ATP DNA aptamer (quencher-CACCTGGGGGAGTATTGCGGAGGAAGG + anchor), 100 nM annealed; ATP concentration: 500 uM; one replicate
How it was run: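 The quencher-labelled ATP aptamer, at 100 nM, was annealed to Cy3-labelled switching-strand clusters on a modified Illumina MiSeq flow-cell. The clusters were imaged in selection buffer, then after 15 min with 500 uM ATP at 22 °C, and this buffer/ATP cycle ran five times with NaOH stripping and re-annealing between runs. Per-cluster fluorescence ratios, summed target-cycle over summed buffer-cycle Cy3 intensity, were averaged per switch-domain sequence. Clusters outside 100-1000 RFU were excluded.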
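Also: ATP exposure 15 min at 22 °C before imaging.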

Sequence	switch fluorescence ratio
TCAACGGC	1.14
GGACTCCAAC	1.05
TAAGGCCGG	1.01
GTAAGCGTTC	0.999
TGCAGACACG	1.08
GGACTTGAAA	0.954
ACTCTTGGAC	1.09
ATCACGTTCG	1.04
ACTTCCTAAA	1.09
GTTCCGGTTA	0.999
TCAAACGGGT	1.02
CCGGTCCTTA	1.06
AGACAGCGGG	1.02
TGGTAAGGGT	1.02
TTCCAATAAA	1.07
TGGAGACTGA	1
CTTACTATCG	1.05
TGATTATAAG	0.953
CCTGTTGTCG	1.1
AAACTGATAC	1.19
ACGTTGCGTG	1.05
TAGCAAGATG	1.12
TCGACGAGCT	1.07
CGTTCGTGC	1.09
GGCACTCCGT	1.05
CAGGTACCA	1.06

Sequence	switch fluorescence ratio
GTTGACATAG	0.992
TTGTGATGCT	1.04
ACGGGAGGCG	0.963
GCAATTCCTA	1.1
CGGGGCCCCA	1.04
CAATCCGCCG	1.04
CACAACACGG	1.52
GCTACTTACC	1.33
ATTGAATACA	1.02
TTTTGGTGCA	0.994
CAACTACTGC	0.988
TTCCTGAGCG	0.966
TCTAACTCAG	1.02
CAATCGCTTT	1.05
GGGTGCTTCG	1.08
GGTTATCTGC	1.05
GCCCGCCTTC	1.01
CCTCGCCCAT	2.73
CCGAAACCTG	1.27
CCGTGATTTC	0.999
TTAAGAGCGG	1.08
CTAACGGCGA	1.15
TGCGGGGATT	0.964
CTACGAAGAC	4.74
TCATAAGGGT	0.975
TACGGACTGT	1.16

Sequence	switch fluorescence ratio
CGTGTGTAG	1.03
GGTACAGGCT	1.01
ACCAAGATGA	0.994
GTATTCTATT	1.01
AACCATTACA	1.09
TATCTTAGT	1.03
ATCGTATCTC	1.1
AAACAACGGC	0.995
GCTACTTCGA	1.04
GCTCTGGTCG	1.04
CAGCTAAATG	1.06
ACCGAGTCAT	1.06
ATCTTCTGAA	0.997
ACTATATCCT	1.11
TTTACAAGCA	1.11
CATTCGGTTA	0.95
TTGGCAAAGT	0.992
TTACAGAAAT	1.12
GCTGGAGGAG	0.984
GTTTATGATC	1.02
GAATCTTTAG	1.01
CTGCGGTAAC	1.96
GACTTCGGTG	0.964
AGTGACCGAT	1.03
AACACGGGTC	1.09
AAGTAATACG	1.23

Sequence	switch fluorescence ratio
ATAAGTGTAA	1.03
GAGGTCGTAC	1.01
ATTTTCATA	0.999
GGAGGATTGC	0.992
ACGCTTCA	1.05
CATTAGTAA	1.02
AACGTCTTGA	1.07
GGACTACTGG	1.05
CATTGGAGAA	0.964
TTCTCGTTTA	1.02
CATAATAGG	1.02
GCGGTGCCTT	0.939
ATTGTCGATT	1.02
TTGGTAAGCC	0.937
TGACATAGTG	1.04
CTAGGGCG	0.981
TGTATCGAAG	0.965
GTACTTACTA	1.19
TATTATAGC	1.02
GGAAAGGGTC	1.02
CTAGTAAGTT	0.996
ATTATACGGT	1
CAACTGTTGC	1
CCCTTTGTTG	0.992
CGGGTATTT	0.969
CTATCTATA	1.03

Sequence	switch fluorescence ratio
GCCAGGAATG	1.02
AAACGGTATG	1
GAGGCGTTA	0.971
CCTGCAGACT	1.65
GAGGTGAATA	1.55
CTCGATCGTG	1.01
TGCCTTTGAA	1.05
TCTGCTTGTC	0.974
TATCCGGGAC	1.38
GGTCAAGGGT	0.99
GCATATCGCG	0.981
ATGGACGGGA	1.1
ACATAGAATG	0.982
AGGCCCGCGC	0.994
GGGTATGAGA	1.01
CGCTGCTTAT	1.21
CACCTTGAAA	0.967
TATGTGTTTG	1.02
AGGGTGCCGA	1.04
ACTGGGTATG	1
AACTCCCGGG	1.54
ACAACTTACC	1.2
AAGTCGTTGC	0.978
CGACGGAAAC	3.4
GTGGTGAGTT	0.966
AGTGTGATGG	0.993

Sequence	switch fluorescence ratio
GCGATGACGC	1
ATGCCAGATT	1.01
CACGATATCA	1.04
TCAACGAGTC	1.06
CTCTGCGGCA	1.66
GGATCACCGG	1.05
GGTACGTGGT	0.994
TGACAGTGCC	0.985
CCCTAGATAG	1.28
GTGATGCGAG	0.956
ACGGTAACA	1.2
ACTGCGGGGG	1.01
GGCTCTCTT	0.99
GAAGCGTTTT	0.97
AGTGCAAGTT	0.949
TCGCATTCGG	1.2
AATGGAAGAA	0.997
GGATCGATCA	0.995
AGCGGGCTCA	1.04
TCCGCATGTA	3.56
GAATGAGAAA	0.931
CGGCATGCAT	1.02
TAGTCGATAG	1.01
TACAAGTGG	0.998
TAGTTTTCTC	0.987
GTTGTAGCAT	1

Sequence	switch fluorescence ratio
TGTTTGGCAC	1.02
ACTATTTGAA	1
TAAGACTAAT	0.995
GGCAGTCGCC	0.976
TCCGTCTTTC	1.03
CACAGAAGCT	1.06
TACGCTTTCG	1.08
TGGAGAGCAT	1
CGAGAGTGGT	0.993
ATTTTTCACA	1.01
AGTCAGACTT	0.988
GTGTGAAGTC	0.981
ACCGTTACAT	1.21
TTAGAAAGGT	1.01
GATGAGAAAA	1.08
GCTGTTAACT	1.02
CCAAGGAGCC	1.02
CCTGTTAGTC	0.962
TCGTTTATAA	0.986
TAGAGGGAG	0.978
TTTTGCCCGT	1.03
TGAGGTTCG	0.95
CAGTAAGTTT	0.981
AGCACGTGCA	1.01
CTCAGATAAT	1.02
TCTGCTTAG	0.972

Sequence	switch fluorescence ratio
TCAAATTGGA	0.984
AGGCTGTTTC	1.04
GCCAATTGTA	0.965
ATCACCGTTC	1.05
GGGTTG	0.99
GCTTTTCAGT	0.983
AATTGGAA	0.985
ACGTAATTG	1.22
TTAATCCGGT	0.955
CATTTTGGAG	1.01
CCCGGCGCCC	1.01
CGTTCTCATC	0.986
TTTAGTCGGC	0.957
TGATACCAGT	1.03
CGTGTAGGG	0.99
GCTGGGATGT	1
TTCAGAGAGA	1.02
TGAAATCCTT	1.04
TACATTGTAT	0.988
